# Assay results from PubChem BioAssay (NCI).
#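 These data come from cells grown in 96-well plates and exposed to compound for 48 hours at five concentrations. GI50: concentration for 50% inhibition of growth.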 The source holds more than one record for some entries. The list is limited to them. The source may hold further records. A record mostly stands for its own series of concentrations, which the source does not state; some values may only mark the edge of a range.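 TGI marks complete inhibition of growth.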
# Assays:
# Assay in all cases: NCI-60 cell line screen, 48 h
# SNB-75 CNS = system: SNB-75 CNS
# 786-0 renal = system: 786-0 renal
# HCC-2998 colon = system: HCC-2998 colon
# HCT-116 colon = system: HCT-116 colon
# MOLT-4 leukemia = system: MOLT-4 leukemia
# MDA-MB-231 breast = system: MDA-MB-231 breast
# OVCAR-4 ovarian = system: OVCAR-4 ovarian
# RPMI-8226 leukemia = system: RPMI-8226 leukemia
# SN12C renal = system: SN12C renal
# DU-145 prostate = system: DU-145 prostate
# HOP-92 NSCLC = system: HOP-92 NSCLC
# HS 578T breast = system: HS 578T breast
# BT-549 breast = system: BT-549 breast
# IGROV1 ovarian = system: IGROV1 ovarian
# OVCAR-3 ovarian = system: OVCAR-3 ovarian
# MALME-3M melanoma = system: MALME-3M melanoma
# OVCAR-8 ovarian = system: OVCAR-8 ovarian
# MDA-MB-435 = system: MDA-MB-435
# OVCAR-5 ovarian = system: OVCAR-5 ovarian
# NCI-H460 lung = system: NCI-H460 lung
# A498 renal = system: A498 renal
# HOP-62 NSCLC = system: HOP-62 NSCLC
# NCI-H522 lung = system: NCI-H522 lung
# NCI-H23 lung = system: NCI-H23 lung
# SW-620 colon = system: SW-620 colon
# HT29 colon = system: HT29 colon
# EKVX NSCLC = system: EKVX NSCLC
# SK-MEL-5 melanoma = system: SK-MEL-5 melanoma
# TK-10 renal = system: TK-10 renal
# SK-MEL-28 melanoma = system: SK-MEL-28 melanoma
# LOX IMVI melanoma = system: LOX IMVI melanoma
# KM12 colon = system: KM12 colon
# NCI-H226 lung = system: NCI-H226 lung
# HCT-15 colon = system: HCT-15 colon
# A549 NSCLC = system: A549 NSCLC
# U251 CNS = system: U251 CNS
# COLO 205 colon = system: COLO 205 colon
# SF-295 CNS = system: SF-295 CNS
# SNB-19 CNS = system: SNB-19 CNS
# UACC-257 melanoma = system: UACC-257 melanoma
# PC-3 prostate = system: PC-3 prostate
# UO-31 renal = system: UO-31 renal
# SF-268 CNS = system: SF-268 CNS
# ACHN renal = system: ACHN renal
smiles,measurement,setting,value
COC(=O)[C@H](Cc1ccccc1)NNC(=O)c1csc([C@@H](C[C@H](C(C)C)N(C)C(=O)[C@@H](NC(=O)[C@H]2CCCCN2C)C2CC2)OC(C)=O)n1,GI50,SNB-75 CNS,"2.99 nM, 2.5 nM, 34.8 nM"
same,TGI,SNB-75 CNS,"71.5 nM, 25 µM, > 100 µM"
same,GI50,786-0 renal,"45 nM, 2.5 nM, 568 nM"
same,GI50,HCC-2998 colon,"99.2 nM, 2.5 nM, 6.7 µM"
same,GI50,HCT-116 colon,"31.2 nM, 2.5 nM, 39.1 nM"
same,GI50,MOLT-4 leukemia,"4.62 nM, 2.5 nM, 35 nM"
same,GI50,MDA-MB-231 breast,"32.6 nM, 2.5 nM, 180 nM"
same,TGI,MDA-MB-231 breast,672 nM and > 100 µM
same,GI50,OVCAR-4 ovarian,"72 nM, 465 nM, 6.62 µM"
same,GI50,RPMI-8226 leukemia,"3.61 nM, 2.5 nM, 31.3 nM"
same,GI50,SN12C renal,"8.33 nM, 2.5 nM, 62.7 nM"
same,GI50,DU-145 prostate,"5.47 nM, 2.5 nM, 38.8 nM"
same,GI50,HOP-92 NSCLC,"14.2 nM, 2.5 nM, 736 nM"
same,TGI,HOP-92 NSCLC,"717 nM, 25 µM, > 100 µM"
same,GI50,HS 578T breast,4.94 nM and 82.7 nM
same,GI50,BT-549 breast,"8.3 nM, 2.5 nM, 41.7 nM"
same,GI50,IGROV1 ovarian,"6.12 nM, 2.5 nM, 50.7 nM"
same,TGI,OVCAR-3 ovarian,10.2 nM and 2.09 µM
same,GI50,MALME-3M melanoma,68.8 nM and > 100 µM
same,GI50,OVCAR-8 ovarian,"32.7 nM, 2.5 nM, 60.2 nM"
same,TGI,MDA-MB-435,17.7 nM and 1.16 µM
same,GI50,OVCAR-5 ovarian,"298 nM, 2.5 nM, 5.08 µM"
same,GI50,NCI-H460 lung,"25.5 nM, 2.5 nM, 54.7 nM"
same,GI50,A498 renal,"8.76 nM, 2.5 nM, 590 nM"
same,TGI,A498 renal,"205 nM, 11.5 µM, > 100 µM"
same,GI50,HOP-62 NSCLC,"37.4 nM, 2.5 nM, 74.1 nM"
same,TGI,NCI-H522 lung,32.4 nM and 24.7 µM
same,GI50,NCI-H23 lung,"51.8 nM, 2.5 nM, 588 nM"
same,GI50,SW-620 colon,"6.76 nM, 2.5 nM, 36.1 nM"
same,GI50,HT29 colon,"13.6 nM, 2.5 nM, 49.6 nM"
same,GI50,EKVX NSCLC,61.9 nM and 831 nM
same,GI50,SK-MEL-5 melanoma,"7.65 nM, 2.5 nM, 29.9 nM"
same,GI50,TK-10 renal,2.5 nM and > 100 µM
same,GI50,SK-MEL-28 melanoma,"204 nM, 2.5 nM, 2.73 µM"
same,GI50,LOX IMVI melanoma,"17.2 nM, 2.5 nM, 53.8 nM"
same,GI50,KM12 colon,"56.3 nM, 2.5 nM, 469 nM"
same,GI50,NCI-H226 lung,101 nM and > 100 µM
same,GI50,HCT-15 colon,"189 nM, 2.5 nM, 1.05 µM"
same,GI50,A549 NSCLC,"91.6 nM, 2.5 nM, 416 nM"
same,GI50,U251 CNS,"28.7 nM, 2.5 nM, 219 nM"
same,GI50,COLO 205 colon,"10 nM, 2.5 nM, 39.6 nM"
same,TGI,COLO 205 colon,"162 nM, 40.2 nM, 1.06 µM"
same,GI50,SF-295 CNS,"51.6 nM, 2.5 nM, 342 nM"
same,GI50,SNB-19 CNS,"32.5 nM, > 25 µM, 69.6 nM"
same,GI50,UACC-257 melanoma,"280 nM, > 25 µM, 28.3 µM"
same,GI50,PC-3 prostate,"29.4 nM, 2.5 nM, 123 nM"
same,GI50,UO-31 renal,"156 nM, 2.5 nM, 639 nM"
same,GI50,SF-268 CNS,"73.8 nM, 2.5 nM, 326 nM"
same,GI50,ACHN renal,"64.9 nM, 2.5 nM, 168 nM"
